{"source": "the supplement of paper PMC8728848", "binders": {"B1": {"name": "FBG1 (Homo sapiens), Q9UK22 (protein)", "chain": "MDGDGDPESVGQPEEASPEEQPEEASAEEERPEDQQEEEAAAAAAYLDELPEPLLLRVLAALPAAELVQACRLVCLRWKELVDGAPLWLLKCQQEGLVPEGGVEEERDHWQQFYFLSKRRRNLLRNPCGEEDLEGWCDVEHGGDGWRVEELPGDSGVEFTHDESVKKYFASSFEWCRKAQVIDLQAEGYWEELLDTTQPAIVVKDWYSGRSDAGCLYELTVKLLSEHENVLAEFSSGQVAVPQDSDGGGWMEISHTFTDYGPGVRFVRFEHGGQDSVYWKGWFGARVTNSSVWVEP"}}, "assay_in_all_cases": "glycan array binding signal (z-score within array); higher = stronger binding", "conditions_in_all_cases": "glycan notation: IUPAC condensed, linker removed", "key": {"[1]": {"target": "GalNAc(b1-3)GalNAc", "outline": "(§1)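 The binding signal is a Z-score computed within each array. Data were drawn from 3228 arrays in the Consortium for Functional Glycomics database, restricted to those with a known protein sequence. Scores were averaged over arrays of the same protein sequence at different concentrations or buffers, and over linkers, and negative values can be taken as non-binding.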"}, "[2]": {"target": "GalNAc(b1-4)GlcNAc", "outline": "as §1"}, "[3]": {"target": "Glc(a1-4)Glc", "outline": "as §1"}, "[4]": {"target": "Glc(b1-4)Glc", "outline": "as §1"}, "[5]": {"target": "Glc(b1-6)Glc", "outline": "as §1"}, "[6]": {"target": "GlcNAc(b1-2)Gal(b1-3)GalNAc", "outline": "as §1"}, "[7]": {"target": "GlcNAc(b1-3)Gal", "outline": "as §1"}, "[8]": {"target": "GlcNAc(b1-3)Gal(b1-3)GalNAc", "outline": "as §1"}, "[9]": {"target": "GlcNAc(b1-3)Gal(b1-4)Glc", "outline": "as §1"}, "[10]": {"target": "GlcNAc(b1-3)Gal(b1-4)GlcNAc", "outline": "as §1"}, "[11]": {"target": "GlcNAc(b1-3)[GlcNAc(b1-6)]GalNAc", "outline": "as §1"}, "[12]": {"target": "GlcNAc(b1-3)[GlcNAc(b1-6)]GlcNAc(b1-4)GlcNAc", "outline": "as §1"}, "[13]": {"target": "GlcNAc(b1-4)GlcNAc(b1-4)GlcNAc", "outline": "as §1"}, "[14]": {"target": "GlcNAc(b1-4)[GlcNAc(b1-6)]GalNAc", "outline": "as §1"}, "[15]": {"target": "GlcNAc(b1-6)GalNAc", "outline": "as §1"}, "[16]": {"target": "Kdn(a2-3)Gal(b1-3)GlcNAc", "outline": "as §1"}, "[17]": {"target": "Kdn(a2-3)Gal(b1-4)GlcNAc", "outline": "as §1"}, "[18]": {"target": "Man(a1-2)Man(a1-2)Man(a1-3)Man", "outline": "as §1"}, "[19]": {"target": "Man(a1-2)Man(a1-2)Man(a1-6)[Man(a1-3)]Man", "outline": "as §1"}, "[20]": {"target": "Man(a1-2)Man(a1-3)Man", "outline": "as §1"}, "[21]": {"target": "Man(a1-2)Man(a1-3)[Man(a1-2)Man(a1-6)]Man", "outline": "as §1"}, "[22]": {"target": "Man(a1-2)Man(a1-3)[Man(a1-2)Man(a1-6)]Man(a1-6)[Man(a1-2)Man(a1-2)Man(a1-3)]Man(b1-4)GlcNAc(b1-4)GlcNAc", "outline": "as §1"}, "[23]": {"target": "Man(a1-2)Man(a1-3)[Man(a1-2)Man(a1-6)]Man(a1-6)[Man(a1-3)[Man(a1-6)]Man(a1-6)]Man(b1-4)GlcNAc(b1-4)GlcNAc", "outline": "as §1"}, "[24]": {"target": "Man(a1-2)Man(a1-3)[Man(a1-6)]Man(a1-6)[Man(a1-2)Man(a1-3)]Man(b1-4)GlcNAc(b1-4)GlcNAc", "outline": "as §1"}, "[25]": {"target": "Man(a1-2)Man(a1-6)[Man(a1-3)]Man(a1-6)[Man(a1-2)Man(a1-2)Man(a1-3)]Man(b1-4)GlcNAc(b1-4)GlcNAc", "outline": "as §1"}, "[26]": {"target": "Man(a1-3)[Man(a1-6)]Man", "outline": "as §1"}, "[27]": {"target": "Man(a1-3)[Man(a1-6)]Man(a1-6)[Man(a1-3)]Man(b1-4)GlcNAc(b1-4)GlcNAc", "outline": "as §1"}, "[28]": {"target": "Neu5Ac(a2-3)Gal", "outline": "as §1"}, "[29]": {"target": "Neu5Ac(a2-3)Gal(b1-3)GalNAc", "outline": "as §1"}, "[30]": {"target": "Neu5Ac(a2-3)Gal(b1-3)GalNAc6S", "outline": "as §1"}, "[31]": {"target": "Neu5Ac(a2-3)Gal(b1-3)GlcNAc", "outline": "as §1"}, "[32]": {"target": "Neu5Ac(a2-3)Gal(b1-3)[Fuc(a1-4)]GlcNAc", "outline": "as §1"}, "[33]": {"target": "Neu5Ac(a2-3)Gal(b1-3)[Neu5Ac(a2-3)Gal(b1-4)]GlcNAc", "outline": "as §1"}, "[34]": {"target": "Neu5Ac(a2-3)Gal(b1-3)[Neu5Ac(a2-6)]GalNAc", "outline": "as §1"}, "[35]": {"target": "Neu5Ac(a2-3)Gal(b1-4)Glc", "outline": "as §1"}, "[36]": {"target": "Neu5Ac(a2-3)Gal(b1-4)GlcNAc", "outline": "as §1"}}, "note": "The list shows a part of the results."}
{"binder": "B1", "values": [{"measurement": "glycan array binding signal (z-score)", "setting": "[1]", "value": -0.242}, {"measurement": "glycan array binding signal (z-score)", "setting": "[2]", "value": -0.097}, {"measurement": "glycan array binding signal (z-score)", "setting": "[3]", "value": -0.213}, {"measurement": "glycan array binding signal (z-score)", "setting": "[4]", "value": -0.168}, {"measurement": "glycan array binding signal (z-score)", "setting": "[5]", "value": -0.233}, {"measurement": "glycan array binding signal (z-score)", "setting": "[6]", "value": -0.226}, {"measurement": "glycan array binding signal (z-score)", "setting": "[7]", "value": -0.219}, {"measurement": "glycan array binding signal (z-score)", "setting": "[8]", "value": -0.202}, {"measurement": "glycan array binding signal (z-score)", "setting": "[9]", "value": -0.176}, {"measurement": "glycan array binding signal (z-score)", "setting": "[10]", "value": -0.196}, {"measurement": "glycan array binding signal (z-score)", "setting": "[11]", "value": -0.242}, {"measurement": "glycan array binding signal (z-score)", "setting": "[12]", "value": -0.188}, {"measurement": "glycan array binding signal (z-score)", "setting": "[13]", "value": -0.107}, {"measurement": "glycan array binding signal (z-score)", "setting": "[14]", "value": -0.206}, {"measurement": "glycan array binding signal (z-score)", "setting": "[15]", "value": -0.232}, {"measurement": "glycan array binding signal (z-score)", "setting": "[16]", "value": -0.237}, {"measurement": "glycan array binding signal (z-score)", "setting": "[17]", "value": -0.173}, {"measurement": "glycan array binding signal (z-score)", "setting": "[18]", "value": -0.214}, {"measurement": "glycan array binding signal (z-score)", "setting": "[19]", "value": -0.202}, {"measurement": "glycan array binding signal (z-score)", "setting": "[20]", "value": -0.2}, {"measurement": "glycan array binding signal (z-score)", "setting": "[21]", "value": -0.1}, {"measurement": "glycan array binding signal (z-score)", "setting": "[22]", "value": 3.64}, {"measurement": "glycan array binding signal (z-score)", "setting": "[23]", "value": 4.33}, {"measurement": "glycan array binding signal (z-score)", "setting": "[24]", "value": 2.86}, {"measurement": "glycan array binding signal (z-score)", "setting": "[25]", "value": 4.93}, {"measurement": "glycan array binding signal (z-score)", "setting": "[26]", "value": -0.213}, {"measurement": "glycan array binding signal (z-score)", "setting": "[27]", "value": 4.2}, {"measurement": "glycan array binding signal (z-score)", "setting": "[28]", "value": -0.204}, {"measurement": "glycan array binding signal (z-score)", "setting": "[29]", "value": -0.198}, {"measurement": "glycan array binding signal (z-score)", "setting": "[30]", "value": -0.22}, {"measurement": "glycan array binding signal (z-score)", "setting": "[31]", "value": -0.214}, {"measurement": "glycan array binding signal (z-score)", "setting": "[32]", "value": -0.23}, {"measurement": "glycan array binding signal (z-score)", "setting": "[33]", "value": -0.221}, {"measurement": "glycan array binding signal (z-score)", "setting": "[34]", "value": -0.247}, {"measurement": "glycan array binding signal (z-score)", "setting": "[35]", "value": -0.031}, {"measurement": "glycan array binding signal (z-score)", "setting": "[36]", "value": -0.198}]}
